# According to the supplement of paper PMC3334620:
# The full ranking holds about 33,000 sequences; the median of “E-score (-0.5 to 0.5)” is about -0.043, and the highest 2% start at about 0.37. Some of the results follow.
# Biological target: T1, Upc2 (UniProt Q12151)
# T1 sequence: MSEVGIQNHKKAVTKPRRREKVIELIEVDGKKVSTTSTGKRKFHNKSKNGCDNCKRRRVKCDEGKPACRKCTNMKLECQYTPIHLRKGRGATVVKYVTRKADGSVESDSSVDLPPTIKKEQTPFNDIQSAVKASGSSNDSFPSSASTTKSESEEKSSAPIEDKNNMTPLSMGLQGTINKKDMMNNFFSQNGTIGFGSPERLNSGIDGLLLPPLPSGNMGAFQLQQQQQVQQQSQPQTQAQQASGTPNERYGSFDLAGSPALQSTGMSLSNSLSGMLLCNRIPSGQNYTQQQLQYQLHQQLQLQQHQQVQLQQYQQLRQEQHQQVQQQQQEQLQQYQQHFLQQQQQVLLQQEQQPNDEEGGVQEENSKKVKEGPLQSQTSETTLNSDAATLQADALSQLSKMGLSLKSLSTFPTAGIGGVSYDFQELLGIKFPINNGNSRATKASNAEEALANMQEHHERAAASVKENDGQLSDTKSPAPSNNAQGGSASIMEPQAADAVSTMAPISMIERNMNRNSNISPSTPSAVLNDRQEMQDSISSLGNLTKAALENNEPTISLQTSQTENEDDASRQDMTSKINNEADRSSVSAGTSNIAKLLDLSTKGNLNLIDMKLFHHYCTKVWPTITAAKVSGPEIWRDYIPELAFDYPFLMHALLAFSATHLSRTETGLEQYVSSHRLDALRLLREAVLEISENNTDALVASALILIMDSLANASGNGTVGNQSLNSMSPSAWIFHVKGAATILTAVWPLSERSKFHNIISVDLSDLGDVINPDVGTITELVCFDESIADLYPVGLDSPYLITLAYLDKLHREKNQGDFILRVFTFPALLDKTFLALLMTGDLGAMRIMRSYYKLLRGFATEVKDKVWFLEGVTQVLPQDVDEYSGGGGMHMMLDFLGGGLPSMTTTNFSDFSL
# Assay: PBM E-score (8-mer binding enrichment) (E-score (-0.5 to 0.5)); higher = stronger / more preferred TF binding; most listed sequences are background and not binding sites
# Conditions: protein concentration: 200 nM; construct: GST-full length
# Method in brief: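 Detection of bound protein used fluorescent anti-GST, with scans normalised by masliner. The proteins were GST-tagged yeast transcription factors applied at about 100-200 nM to universal all-10-mer Agilent arrays made double-stranded by primer extension. Each ungapped eight-base word, pooled with its reverse complement, was scored with an E-score from the Universal PBM Analysis Suite.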
row,Sequence,PBM E-score
1,ACGACCAA,0.366
2,AATTTAAA,0.13
3,GCTTGGAA,0.159
4,AGGTAATG,-0.127
5,GCAATTGA,-0.0519
6,TCATCCAA,-0.0513
7,AATGAACT,0.0533
8,CTGTTAGC,-0.142
9,GCGGGAGA,-0.21
10,CGTGTTTA,0.166
11,CGCGGACA,-0.098
12,CGCTTTAC,0.292
13,AACGGGGA,0.299
14,GCCAAGGA,-0.287
15,GCCTGCGA,-0.302
16,CAATCACC,-0.00615
17,AAGATGAC,-0.181
18,AGATTGAG,-0.0883
19,GGAAGTGA,-0.0336
20,CGCGCGCC,0.125
21,CAAAACGC,-0.079
22,ACTAAATC,0.0151
23,CAGTATAG,0.203
24,AAAGATGA,-0.0247

row,Sequence,PBM E-score
1,CACACGGC,-0.0308
2,ATTAAGGG,-0.233
3,GACACCGC,0.0482
4,CCGCAGAC,-0.0903
5,CGTTTTTC,0.115
6,ATAAGTAC,0.142
7,ACAGAGGC,0.0372
8,CCAAGGCG,-0.0754
9,AATTAGGA,-0.113
10,AATTTTTA,0.0508
11,AACACCCG,0.0683
12,ACACCGCA,-0.0497
13,CCCGCAAG,-0.239
14,TGAGTGCA,-0.0443
15,AAGAAGGA,-0.253
16,GAGTCAAC,-0.054
17,AAGGATAT,-0.13
18,CTTCGACA,-0.137
19,AGAACGAT,0.342
20,ACTAGTAG,-0.00342
21,ATGCGCAC,-0.0492
22,CACTCTTA,-0.00132
23,GACACCTC,0.108
24,GCGTGTCA,-0.163

row,Sequence,PBM E-score
1,GCCCGGGC,-0.128
2,ACTCCAGA,-0.0105
3,CTTGAAAC,0.0822
4,ACCCGTCT,-0.0717
5,ACGGAGAG,0.209
6,TCCTCACA,-0.169
7,TACTAAAA,0.186
8,GAGAGTGA,0.0106
9,AAATGTCA,-0.0596
10,CGGAATAC,0.205
11,ACACTCTA,0.0995
12,AGGTCTCA,-0.221
13,ATCGTACA,0.468
14,CATCCTAG,-0.0989
15,AGGAAGAG,-0.29
16,GATCGCCA,-0.0262
17,TGTCGGAA,0.0576
18,GACCGGAA,-0.0034
19,CATCCATG,-0.195
20,GGGAAACA,-0.0432
21,CCGAACGA,0.384
22,AGCCCGCG,-0.128
23,ATTTTTTA,0.189
24,AATGTATG,-0.12

row,Sequence,PBM E-score
1,CCAGCCCA,-0.24
2,CCTGAGGC,-0.207
3,CAAACGAC,0.464
4,AAAGCGTG,-0.069
5,AGGGCGAA,-0.154
6,CATGCAGA,-0.23
7,AATCGTAT,0.44
8,CTAGGCTA,-0.244
9,AGCGGCAC,-0.0916
10,AGGTGTAG,-0.137
11,CGCGTTTC,0.0838
12,AGCGGTGC,0.0248
13,GATATTAC,0.195
14,GTCTGGGA,0.0225
15,AAATAGAA,-0.0216
16,CCCTTGGC,-0.264
17,AAATATTC,0.106
18,GGGTAACC,-0.14
19,CGAGTAAA,0.185
20,CGGTTGAG,0.16
21,GAGTCGCC,-0.0276
22,ACTATTCC,-0.138
